Assay results taken from the supplement of paper PMC5998384.

Key:
HeLa Kyoto [1] = assay: solubility in G1/S (NP-40 vs SDS abundance) (log2 ratio); higher = more soluble; details: cell cycle stage: G1/S
HeLa Kyoto [2] = assay: melting temperature (median over replicates), in situ; higher = more thermally stable
HeLa Kyoto [3] = assay: thermal stability score vs G1/S (z-score of summed log2 fold changes over temperatures); higher = more thermally stable than in G1/S
HeLa Kyoto [4] = assay: solubility change mitosis vs G1/S (difference of NP-40 vs SDS log2 ratios) (log2 ratio difference); higher = more soluble in mitosis
[5] = cell cycle stage: early G1 (4.5 h after nocodazole release)
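For melting temperature (median over replicates), in situ in this document: HeLa Kyoto cells synchronized by double thymidine or nocodazole block, proteins quantified by TMT10plex mass spectrometry, three independent biological replicates.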
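For solubility change mitosis vs G1/S (difference of NP-40 vs SDS log2 ratios) in this document: synchronized HeLa Kyoto cells (double thymidine block for G1/S, nocodazole release for mitosis), protein amounts in NP-40 versus SDS lysates quantified by mass spectrometry, three biological replicates.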
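For solubility in G1/S (NP-40 vs SDS abundance) in this document: HeLa Kyoto cells arrested at G1/S by double thymidine block, proteins quantified by TMT10plex mass spectrometry in mild NP-40 versus SDS extracts, three biological replicates.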
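For thermal stability score vs G1/S (z-score of summed log2 fold changes over temperatures) in this document: synchronized HeLa Kyoto cells, proteins quantified by TMT10plex mass spectrometry, three biological replicates, mitosis taken 0.5 h after nocodazole release, G1/S directly after double thymidine block.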

| Substance | solubility in G1/S (log2) (HeLa Kyoto [1]) | melting temperature (HeLa Kyoto [2]; cell cycle stage: G1/S) | melting temperature (HeLa Kyoto [2]; cell cycle stage: mitosis) | thermal stability score (HeLa Kyoto [3]; [5]) | thermal stability score (HeLa Kyoto [3]; cell cycle stage: mitosis) | solubility change mitosis (log2) (HeLa Kyoto [4]) |
| --- | --- | --- | --- | --- | --- | --- |
| COX4I1 (sequence left out) | 0.145 | 54.6 °C | 53.6 °C | -4.41 | -3.88 | 0.0135 |
| EIF3E (sequence left out) | -0.416 | 49 °C | 48 °C | 0.398 | 2.01 | -0.114 |
